Measurements published in paper PMC12040169 (PLOS Biology, 2025).
Some of the results follow.

System: T1, C. trachomatis L2/434/Bu expressing GFP (CTL2-GFP)
T1 construct: L2/434/Bu GFP intracellular growth in HeLa cells
Parameters: species or system HeLa; C. trachomatis total inclusion area by high-content imaging, normalised to DMSO
Conditions: total inclusion area; 28.5 h, 10 µM; inhibitor
How it was run: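 Imaging read-out: GFP inclusions and Hoechst nuclei captured by high-content imaging after fixation. Inclusion area/number = chlamydial growth; nuclei count = host cell viability. MIC calculated per earlier method.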

SMILES	% of control remaining
NS(=O)(=O)c1cccc(NC(=O)COc2ccc([N+](=O)[O-])cc2)c1 [CBK263624]	96.119
N#CCCCN1CCN(c2nccnc2OCc2ccc(Cl)c(Cl)c2)CC1 [CBK083086T]	78.6666
CN(C1=NS(=O)(=O)c2ccccc21)c1ccc(OC(=O)C2CC(=O)N(c3ccccc3)C2)cc1 (centres unmarked) [CBK263849]	91.5424
C[S+]([O-])CCNC(=O)c1cc(-c2cccs2)no1 (centres unmarked) [CBK282563]	91.7534
Cc1cccc2cc3c(nc12)OCC(=O)N(Cc1ccco1)C3 [CBK283816]	64.951
NCC(=O)Nc1ccc(Br)cc1C(=O)c1ccccc1Cl [CBK264692B]	103.678
COCCC1CN(c2nc(N(C)C)nc3c2CCN(C(C)=O)C3)CCO1 (centres unmarked) [CBK307464]	67.8205
COc1ccc([C@@]23CC[C@@H](NC(=O)Nc4nc(Cl)cc(Cl)n4)C[C@@H]2N(C)CC3)cc1OC [CBK067083T]	86.0784
Cc1nn(C)c(Oc2ccccc2OCc2ccccc2)c1[N+](=O)[O-] [CBK000281]	84.5995
CSCCCNC(=O)N(CCc1ccccc1)Cc1ccccc1 [CBK155317]	100.487
Cc1nn(-c2ccc(C(=O)O)cc2)c2c1C(=O)CC(C)(C)C2 [CBK286734]	94.461
COc1ccc([C@@]23CC[C@@H](NC(=O)c4cccc(Cl)c4)C[C@@H]2N(C)CC3)cc1OC [CBK073982T]	64.9186
Nc1nc(OCCN2CCOCC2)cnc1-c1cc(Cl)cc(Cl)c1 [CBK145198]	63.5003
Cc1nc(C)c(C(=O)N2CCCC(C(=O)c3ccc(F)cc3)C2)s1 (centres unmarked) [CBK305296]	34.1063
Cc1cccc(NC(=O)c2ccc3n[nH]c(=S)n3c2)c1 [CBK288389]	64.4749
N/C(=N\OC(=O)COc1ccc2ccccc2c1)c1ccncc1 [CBK263737]	91.2331
CCCS(=O)(=O)n1c(=O)n(CC(=O)c2ccc(N(CC)CC)cc2)c2ccccc21 [CBK106504]	80.4955
Cc1cc2c(cc3c(=O)n(CC(=O)NC(C)(C)C)nc(C)n32)s1 [CBK284070]	84.1928
O=C(C1CC1)N1CCC(c2nnc(-c3ccsc3)o2)CC1 [CBK283376]	89.5087
O=C(Nc1ccc(Br)cc1)C1CCCN1S(=O)(=O)c1ccc(Cl)cc1 (centres unmarked) [CBK155481]	109.521
COc1ccccc1-c1nnc(NCc2ccc3c(c2)OCO3)nc1-c1ccccc1OC [CBK286284]	87.9531
O=C(CCC(=O)OCN1C(=O)c2ccccc2C1=O)Nc1ccc2ccccc2c1 [CBK265277]	106.047
CC(C)N(C(=O)N1CCC2(CC1)CC(=O)c1ccccc1O2)C(C)C [CBK284010]	84.5129
O=C(O)c1cc(-n2c(S)nnc2-c2ccc3ccccc3n2)ccc1Cl [CBK269512]	80.4098
O=C(O)/C(O)=C/C(=O)c1ccc(Cl)cc1 [CBK261841]	95.5635
CC(=O)Nc1nc(OCCN2CCCC2=O)cnc1/C=C\c1ccccc1 [CBK145371]	95.7094
C=CCNC(=O)C1(Cc2ccccc2-c2cccnc2)CCOCC1 [CBK285217]	74.7928

SMILES	% of control remaining
Cc1csc2c(N3CCCC3CC(O)c3cnn(C)c3)ncnc12 (centres unmarked) [CBK304477]	41.1049
CCN1CCCc2cc(-c3cncn3CCCn3ccnc3C)ccc21 [CBK281810]	98.0733
Cc1ccc(C2(O)CCN(Cc3c(C)nc4cc(C)ccn34)CC2)cc1 [CBK282733]	114.568
Cc1cc(Cl)c(S(=O)(=O)NCc2ccccc2)cc1OCC(N)=O [CBK266588]	123.482
CCC(Cc1c[nH]c2ccccc12)NC(=N)N (centres unmarked) [CBK010430]	87.389
Cc1cc(C(=O)NCCn2ccnc2C)nc2ccccc12 [CBK281894]	95.3268
Cc1cc(O)cc(O)c1/C=N\NC(=O)C1COc2cc3ccccc3cc2O1 (centres unmarked) [CBK262809]	103.469
COc1ccc(-c2oc(C(=O)N(C)C)c(C(=O)O)c2-c2ccc(OC)cc2)cc1 [CBK001958]	97.0534
CCOC(=O)CNS(=O)(=O)c1ccc(Cl)c(Cl)c1Cl [CBK034428]	52.6549
O=C(Nc1sc2c(c1C(=O)NCc1cccnc1)CCCC2)c1ccc(Cl)cc1 [CBK265498]	80.2208
O=C(NC1CCCc2c1cnn2-c1ccc(F)cc1)c1ccncc1 (centres unmarked) [CBK283929]	95.1071
O=C(NCc1ccccc1OC1CCNC1)C1CCCO1 (centres unmarked) [CBK024503T]	87.9173
Cc1nc2ccc(C(=O)NC(C)c3ccccn3)cc2s1 (centres unmarked) [CBK281890]	89.1419
CCN1CCN(C(=O)CN(Cc2ccccc2)S(C)(=O)=O)CC1 [CBK266735]	77.7838
CC(=O)c1cccc(NC(=O)N(CCO)C2CCCc3ccccc32)c1 (centres unmarked) [CBK305195]	88.7473
CNC(=O)c1cc(NC(=O)NCC2CC(=O)N(CCOC)C2)ccc1F (centres unmarked) [CBK304403]	75.9493
N#C/C(=C/c1ccccc1OCc1cccc([N+](=O)[O-])c1)c1ccc(C(=O)O)cc1 [CBK268748]	106.642
O=C(NCc1ccc(Cl)cc1)c1c(O)c2cc(NS(=O)(=O)c3ccccc3)ccc2[nH]c1=O [CBK017589]	95.3674
CSc1nsc(SCC(=O)Nc2ccc3c(c2)OCO3)n1 [CBK270044]	89.3425
O=C(O)CCC(=O)NCC(=O)c1ccc(F)cc1 [CBK057384]	57.7105
COc1ccc(OC)c(-c2nc(Nc3ccccc3Cl)sc2CC(=O)O)c1 [CBK264190]	101.207
COc1ccc(-c2cnc(N3CCOCC3)c3nccn23)cc1 [CBK091285]	107.952
Nc1c(C(=O)c2ccc3c(c2)OCO3)sc2nc(-c3cccnc3)ccc12 [CBK270186]	95.2646
CN1CCC(N2CCN(C(=O)c3ccc(-c4ccc(OC(F)(F)F)cc4)nc3)CC2)CC1 [CBK156206]	83.3521
CCOc1ccc(Oc2ccc(C(F)(F)F)cc2NC(=O)CCCC(=O)O)cc1 [CBK296993]	81.5243
CC(=O)N[C@H]1CC[C@]2(C)CCC([C@H](C)C(=O)NC3CC3)[C@H](O)[C@H]2[C@@H]1C (some centres unmarked) [CBK289437]	94.1317
Cc1ccc(NC(=O)c2nc(-c3ccc(C(=O)N4CCOCC4)cc3)cnc2N)c(O)c1 [CBK149152]	12.5953

SMILES	% of control remaining
COc1ccccc1-n1nc(CC(C)C)nc1C(C)NS(C)(=O)=O (centres unmarked) [CBK306660]	56.9521
CN(C)CCCN1CCCC2(CCN(C(=O)c3cc(F)c(F)cc3F)C2)C1 (centres unmarked) [CBK132005]	78.7349
Cc1ccc2cc(CN(CCN(C)C)C(=S)Nc3ccccc3)c(=O)[nH]c2c1 [CBK134909]	51.6095
CC(C(=O)NC1CCCN(CC(F)(F)F)C1)n1cnc2ccccc21 (centres unmarked) [CBK304185]	40.2325
COc1ccc(Nc2ncnc3oc(C)c(C)c23)cc1 [CBK288163]	102.274
NC1=NC(c2ccc3c(c2)OCO3)n2c(nc3ccccc32)N1 (centres unmarked) [CBK269906]	89.6246
CS(=O)(=O)N1CCC(Oc2nccnc2OCc2ccc(Cl)c(Cl)c2)CC1 [CBK144910]	101.251
Nn1c(-c2cccs2)nc2ccccc2c1=O [CBK003650]	46.0986
CN(C(=O)c1c[nH]nc1C1CCCN(Cc2cc3ccccc3o2)C1)C1CCCCC1 (centres unmarked) [CBK286492]	101.678
COc1cccc(C2SCC(=O)Nc3[nH]nc(C)c32)c1 (centres unmarked) [CBK287981]	103.714
O=C(O)C(Cc1c[nH]c2ccccc12)NCC1CCCCC1 (centres unmarked) [CBK287238]	91.9908
Cc1nn(Cc2ccc(F)cc2)c(=O)c2cc3sccc3n12 [CBK284059]	77.0356
CCN(CC)CCCCSc1ccc(O)cc1 [CBK261785C]	96.408
CSCCCNC(=O)C1(c2ccccc2)CCCC1 [CBK149526]	93.0825
O=C(Nc1ccc(S(=O)(=O)NCCc2ccccc2)cc1)c1ccncc1 [CBK268172]	79.5624
CC(C)(C)c1cc(C[C@H]2CNCC[C@H]2CC(=O)N2CCN(c3ccc(F)cc3)CC2)no1 [CBK288800]	105.22
Cc1ccc(S(=O)(=O)Nc2ccccc2C(=O)O)cc1[N+](=O)[O-] [CBK042374]	79.4057
CCc1ccccc1NC(=O)Cn1ncnc1Sc1nc2c(c(=O)n(C)c(=O)n2C)n1C [CBK265963]	79.7856
CN(C)CCC1CCCCN1C(=O)C1C2CCCCC21 (centres unmarked) [CBK282055]	130.732
Cc1ccc(C(=O)C(NC(=O)c2cccs2)Nc2ccc(S(N)(=O)=O)cc2)cc1 (centres unmarked) [CBK264897]	103.169
CSc1[nH]nc(N)c1-c1ccc([N+](=O)[O-])cc1 [CBK016751]	97.8774
CCc1cccc2c(CC(=O)NCCn3ccc(C)n3)c(C)[nH]c12 [CBK282698]	115.534
CC1(C)C(=O)N2CCN=C2c2ccccc21 [CBK009903]	81.5198
c1cnc(OC2CCN(CC3CCCCC3)CC2)c(OC2CCCCC2)n1 [CBK082879T]	85.0896
CC(SCCc1ccccn1)C(=O)O (centres unmarked) [CBK026572]	63.5405
O=C(NCc1ccccc1)C(Cc1ccc([N+](=O)[O-])cc1)N1C(=O)c2ccccc2C1=O (centres unmarked) [CBK261279]	94.3017
